Two compounds from article PMC4789653, “Atomic visualization of a flipped-back conformation of bisected glycans bound to specific lectins” (Scientific Reports, 2016) can be followed below.

One experiment has as its target T1, Calsepa (Calystegia sepium, UniProt P93114).
T1 construct: recombinant lectin bought from Wako Pure Chemicals; 16 kDa
T1 sequence (P93114 2-153): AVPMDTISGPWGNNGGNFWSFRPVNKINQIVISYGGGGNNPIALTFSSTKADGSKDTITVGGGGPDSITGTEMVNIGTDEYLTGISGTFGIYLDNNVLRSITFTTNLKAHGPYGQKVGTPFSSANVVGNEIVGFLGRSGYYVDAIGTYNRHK
As to conditions: crystal pH 7.5, 3.0 M NaCl, 20 °C; NMR at 15 °C, very weak binding.

The target of another experiment is T2, PHA-E (Phaseolus vulgaris, UniProt P05088).
T2 construct: gene DLEC1
Particulars: crystal pH 4.5, PEG3,350, 20 °C; primary binding site; Ca and Mn present; labelled compound (pyridylamino).

`CO[C@H]1O[C@H](CO[C@H]2O[C@H](CO)[C@@H](O)[C@H](O)[C@@H]2O[C@@H]2O[C@H](CO)[C@@H](O)[C@H](O)[C@H]2NC(C)=O)[C@@H](O[C@@H]2O[C@H](CO)[C@@H](O)[C@H](O)[C@H]2NC(C)=O)[C@H](O[C@H]2O[C@H](CO)[C@@H](O)[C@H](O)[C@@H]2O[C@@H]2O[C@H](CO)[C@@H](O)[C@H](O)[C@H]2NC(C)=O)[C@@H]1O` [glycan 1, GlcNAcβ1–2Manα1–3[GlcNAcβ1–4][GlcNAcβ1–2Manα1–6]Manα1-O-methyl]: the “X-ray crystal structure 1.85 Å; also 1H-NMR titration and transferred NOE” value at Calsepa is “crystal structure of Calsepa in complex with GlcNAc-terminated bisected N-glycan unit”. With `CC(=O)N[C@H]1[C@H](O[C@@H]([C@H](O)[C@H](CNc2ccccn2)NC(C)=O)[C@H](O)CO[C@@H]2O[C@@H](C)[C@@H](O)[C@@H](O)[C@@H]2O)O[C@H](CO)[C@@H](O[C@@H]2O[C@H](CO[C@H]3O[C@H](CO)[C@@H](O)[C@H](O)[C@@H]3O[C@@H]3O[C@H](CO)[C@@H](O[C@@H]4O[C@H](CO)[C@H](O)[C@H](O)[C@H]4O)[C@H](O)[C@H]3NC(C)=O)[C@@H](O[C@@H]3O[C@H](CO)[C@@H](O)[C@H](O)[C@H]3NC(C)=O)[C@H](O[C@H]3O[C@H](CO)[C@@H](O)[C@H](O)[C@@H]3O[C@@H]3O[C@H](CO)[C@@H](O)[C@H](O)[C@H]3NC(C)=O)[C@@H]2O)[C@@H]1O` [glycan 2, GlcNAcβ1–2Manα1–3[GlcNAcβ1–4][Galβ1–4GlcNAcβ1–2Manα1–6]Manβ1–4GlcNAcβ1–4[Fucα1–6]GlcNAc-pyridylamino (PA)], the “X-ray crystal structure 3.0 Å” value on PHA-E is reported as “crystal structure of PHA-E in complex with a longer bisected N-glycan derivative”.
